Measurements as given in PMC3065485.
These are yes or no findings as the source states them, for the method shown. Binding seen in cells or lysates may run through a third protein. Some binding calls cover weakened binding; strength is not graded here. Sequences can lack the tags named with a protein.

B1: Caf1-Myc (protein, UniProt P39008 1-433)
chain: MQSMNVQPRVLAVGGEQFFSQRQASEQHQQQNMGPQVYSPKVNRARMFPQGMPVNTINGSVNQEMNNAYLLKQKNEPLLTQQQQQQQQQQQPFNIGTPVSVASLPPGLNVLQQQQQQQQQQQQQQQGVGLNRPLASQLPKHLTNQSMPPIFLPPPNYLFVRDVWKSNLYSEFAVIRQLVSQYNHVSISTEFVGTLARPIGTFRSKVDYHYQTMRANVDFLNPIQLGLSLSDANGNKPDNGPSTWQFNFEFDPKKEIMSTESLELLRKSGINFEKHENLGIDVFEFSQLLMDSGLMMDDSVTWITYHAAYDLGFLINILMNDSMPNNKEDFEWWVHQYMPNFYDLNLVYKIIQEFKNPQLQQSSQQQQQQQYSLTTLADELGLPRFSIFTTTGGQSLLMLLSFCQLSKLSMHKFPNGTDFAKYQGVIYGIDGDQ
B2: Ccr4-Myc (protein, UniProt P31384 1-837)
chain: MNDPSLLGYPNVGPQQQQQQQQQQHAGLLGKGTPNALQQQLHMNQLTGIPPPGLMNNSDVHTSSNNNSRQLLDQLANGNANMLNMNMDNNNNNNNNNNNNNNNGGGSGVMMNASTAAVNSIGMVPTVGTPVNINVNASNPLLHPHLDDPSLLNNPIWKLQLHLAAVSAQSLGQPNIYARQNAMKKYLATQQAQQAQQQAQQQAQQQVPGPFGPGPQAAPPALQPTDFQQSHIAEASKSLVDCTKQALMEMADTLTDSKTAKKQQPTGDSTPSGTATNSAVSTPLTPKIELFANGKDEANQALLQHKKLSQYSIDEDDDIENRMVMPKDSKYDDQLWHALDLSNLQIFNISANIFKYDFLTRLYLNGNSLTELPAEIKNLSNLRVLDLSHNRLTSLPAELGSCFQLKYFYFFDNMVTTLPWEFGNLCNLQFLGVEGNPLEKQFLKILTEKSVTGLIFYLRDNRPEIPLPHERRFIEINTDGEPQREYDSLQQSTEHLATDLAKRTFTVLSYNTLCQHYATPKMYRYTPSWALSWDYRRNKLKEQILSYDSDLLCLQEVESKTFEEYWVPLLDKHGYTGIFHAKARAKTMHSKDSKKVDGCCIFFKRDQFKLITKDAMDFSGAWMKHKKFQRTEDYLNRAMNKDNVALFLKLQHIPSGDTIWAVTTHLHWDPKFNDVKTFQVGVLLDHLETLLKEETSHNFRQDIKKFPVLICGDFNSYINSAVYELINTGRVQIHQEGNGRDFGYMSEKNFSHNLALKSSYNCIGELPFTNFTPSFTDVIDYIWFSTHALRVRGLLGEVDPEYVSKFIGFPNDKFPSDHIPLLARFEFMKTNTGSKKV
B3: Not2-Myc (protein, UniProt P06100 1-191)
chain: MEKFGLKALVPLLKLEDKELSSTYDHSMTLGADLSSMLYSLGIPRDSQDHRVLDTFQSPWAETSRSEVEPRFFTPESFTNIPGVLQSTVTPPCFNSIQNDQQRVALFQDETLFFLFYKHPGTVIQELTYLELRKRNWRYHKTLKAWLTKDPMMEPIVSADGLSERGSYVFFDPQRWEKCQRDFLLFYNAIM
B4: Not5-Myc (protein, UniProt Q12514 1-560)
chain: MSQRKLQQDIDKLLKKVKEGIEDFDDIYEKFQSTDPSNSSHREKLESDLKREIKKLQKHRDQIKTWLSKEDVKDKQSVLMTNRRLIENGMERFKSVEKLMKTKQFSKEALTNPDIIKDPKELKKRDQVLFIHDCLDELQKQLEQYEAQENEEQTERHEFHIANLENILKKLQNNEMDPEPVEEFQDDIKYYVENNDDPDFIEYDTIYEDMGCEIQPSSSNNEAPKEGNNQTSLSSIRSSKKQERSPKKKAPQRDVSISDRATTPIAPGVESASQSISSTPTPVSTDTPLHTVKDDSIKFDNSTLGTPTTHVSMKKKESENDSEQQLNFPPDRTDEIRKTIQHDVETNAAFQNPLFNDELKYWLDSKRYLMQPLQEMSPKMVSQLESSLLNCPDSLDADSPCLYTKPLSLPHPTSIFFPNEPIRFVYPYDVPLNLTNNENDTDNKFGKDSKAKSKKDDDIYSRTSLARIFMKFDLDTLFFIFYHYQGSYEQFLAARELFKNRNWLFNKVDRCWYYKEIEKLPPGMGKSEEESWRYFDYKKSWLARRCGNDFVYNEEDFEKL

Target: T1, Hmt1-HA (S. cerevisiae) (UniProt P38074)
T1 sequence: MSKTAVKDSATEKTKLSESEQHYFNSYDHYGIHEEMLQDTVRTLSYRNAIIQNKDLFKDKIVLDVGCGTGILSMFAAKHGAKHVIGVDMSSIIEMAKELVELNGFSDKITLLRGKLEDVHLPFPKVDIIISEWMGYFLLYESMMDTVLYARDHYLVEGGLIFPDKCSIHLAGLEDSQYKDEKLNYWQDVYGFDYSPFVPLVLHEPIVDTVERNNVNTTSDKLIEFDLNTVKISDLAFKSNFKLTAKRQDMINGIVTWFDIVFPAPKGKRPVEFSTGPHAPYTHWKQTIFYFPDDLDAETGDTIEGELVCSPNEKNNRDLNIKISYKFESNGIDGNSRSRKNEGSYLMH
Experiment: co-IP; α-HA immunoprecipitation of the HA-tagged protein (Hmt1-HA or Mlp1-HA) from 1 mg yeast whole-cell extract (10 mM Tris pH 8.0, 150 mM NaCl, 0.1% Nonidet P-40, 10% glycerol, 1 mM DTT), 4°C, Protein A agarose; α-Myc immunoblot for the Ccr4-Not subunit

Row | Binder | binding
1 | B1 | binds
2 | B2 | binds
3 | B3 | binds weakly
4 | B4 | no binding
